The whole screen tested about 310,000 compounds, of which about 14,000 (4.5%) showed an effect of 50% or more. The effect is printed as a negative number. The list shows a part of the results.
target: human ether-à-go-go-related gene (hERG) potassium channel (human, UniProt Q12809); experiment: primary screen, population patch clamp on CHO cells stably expressing hERG
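Also: peak tail current of the secondary pulse compared with the same well before compound.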

Sequence of human ether-à-go-go-related gene (hERG) potassium channel (Q12809 whole entry, looked up): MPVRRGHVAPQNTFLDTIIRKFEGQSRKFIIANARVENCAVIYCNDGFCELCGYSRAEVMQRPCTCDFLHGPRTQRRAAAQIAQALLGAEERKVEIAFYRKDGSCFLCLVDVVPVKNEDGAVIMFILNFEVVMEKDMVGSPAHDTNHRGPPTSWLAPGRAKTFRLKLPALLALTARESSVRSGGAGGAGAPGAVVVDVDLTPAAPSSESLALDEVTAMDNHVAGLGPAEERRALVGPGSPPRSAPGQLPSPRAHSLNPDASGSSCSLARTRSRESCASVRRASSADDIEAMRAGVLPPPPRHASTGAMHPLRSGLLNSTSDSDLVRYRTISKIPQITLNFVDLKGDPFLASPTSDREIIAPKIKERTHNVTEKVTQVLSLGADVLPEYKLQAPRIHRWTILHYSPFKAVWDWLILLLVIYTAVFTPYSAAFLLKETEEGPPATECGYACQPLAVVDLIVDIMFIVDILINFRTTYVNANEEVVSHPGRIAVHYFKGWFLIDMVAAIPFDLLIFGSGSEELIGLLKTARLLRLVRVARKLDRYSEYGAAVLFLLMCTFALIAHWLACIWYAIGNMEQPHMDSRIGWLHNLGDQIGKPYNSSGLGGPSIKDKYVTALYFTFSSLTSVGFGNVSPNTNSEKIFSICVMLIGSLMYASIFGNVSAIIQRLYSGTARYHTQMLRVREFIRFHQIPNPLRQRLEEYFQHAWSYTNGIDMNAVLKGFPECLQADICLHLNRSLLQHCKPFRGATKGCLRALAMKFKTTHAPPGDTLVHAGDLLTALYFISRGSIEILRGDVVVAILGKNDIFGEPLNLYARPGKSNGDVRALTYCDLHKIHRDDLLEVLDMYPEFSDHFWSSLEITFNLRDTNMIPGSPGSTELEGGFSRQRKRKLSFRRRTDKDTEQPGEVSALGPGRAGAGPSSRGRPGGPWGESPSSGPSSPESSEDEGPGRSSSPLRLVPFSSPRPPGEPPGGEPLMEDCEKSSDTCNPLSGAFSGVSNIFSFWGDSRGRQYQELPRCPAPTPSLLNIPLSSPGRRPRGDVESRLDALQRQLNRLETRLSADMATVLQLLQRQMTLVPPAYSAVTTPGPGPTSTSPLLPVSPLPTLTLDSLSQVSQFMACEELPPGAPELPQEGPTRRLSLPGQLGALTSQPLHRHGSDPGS

First: CCCCN(C)CCN1C(=O)C2C(C(=O)Nc3ccc(OC)cc3)C3C=CC2(O3)C1C(=O)NC1CCCCC1 (stereo not drawn)
Second: COc1cc(OC)cc(N(C(=O)C2COc3ccccc3O2)C(C(=O)NC2CCCCC2)c2ccc(O)cc2)c1 (stereo not drawn)
The “hERG current change (%, negative = inhibition) at 10uM” value of the first is lower: -8.93% for the first, 8.29% for the second.

Going from `CCC(CC)c1nnc(NC(=O)Cc2ccccc2[N+](=O)[O-])s1` to `COCCNC(C(=O)Nc1ccc([N+](=O)[O-])cc1Br)c1ccccc1` (stereo not drawn), the “hERG current change (%, negative = inhibition) at 10uM” value falls from -8.11% to -74%.

Going from `COc1ccccc1CCc1nnc(CCC(=O)NCC(C)Oc2cccnc2)o1` (stereo not drawn) to `O=C(CCc1ccc(S(=O)(=O)NCc2ccccc2)cc1)NCc1cccnc1`, the “hERG current change (%, negative = inhibition) at 10uM” value rises from -9% to -7.01%.

Going from `O=C(NCc1cccc(CNC(=O)C(=O)NCC2CCCO2)c1)C(=O)NCC1CCCO1` (stereo not drawn) to `CCOC(=O)c1ccc(NC(=O)NC2CCN(CC(=O)NCc3ccc4c(c3)OCO4)CC2)cc1`, the “hERG current change (%, negative = inhibition) at 10uM” value falls from 13.4% to -8.69%.

First: O=C(COc1ccccc1Cl)NC(=O)NC1CCCC1
Second: CCOC(=O)c1ccccc1NC(=O)COC(=O)CCC1CCCC1
The “hERG current change (%, negative = inhibition) at 10uM” value of the first is higher: 5.55% for the first, -18.1% for the second.

Going from `COc1ccc2c(CC(=O)OCC(=O)NC(N)=O)coc2c1` to `Cc1oc(-c2ccccc2)nc1C(=O)OCC(=O)NC(=O)NCC(C)C`, the “hERG current change (%, negative = inhibition) at 10uM” value rises from 0.524% to 8.36%.

First: CCNS(=O)(=O)c1ccc(NC(=O)Cc2ccc(F)cc2)cc1
Second: COc1ccc2oc(=O)c(C(=O)NCc3ccc(F)cc3)cc2c1
The “hERG current change (%, negative = inhibition) at 10uM” value of the first is lower: 2.16% for the first, 2.69% for the second.

Compared with `O=C(CSc1nc(-c2ccc(F)cc2)cs1)NCCN1C(=O)CSC1=O`, `Cc1ccc2c(c1)NC(=O)C(CC(=O)NCCCN1CCc3ccccc3C1)O2` (stereo not drawn) is lower in “hERG current change (%, negative = inhibition) at 10uM” value: 1.84% for the first, -65.7% for the second.

First: Cn1c(=O)c2nnn(/N=C(\c3ccccc3)C3CC3)c2n(C)c1=O
Second: CN(Cc1ccccc1)Cc1nc2c(c(=O)n(C)c(=O)n2C)n1CCCc1ccccc1
The “hERG current change (%, negative = inhibition) at 10uM” value of the first is higher: -22.3% for the first, -50.3% for the second.

Going from `CC(=O)Nc1ccc(SC(C)C(=O)NC(N)=O)cc1` (stereo not drawn) to `CC(=O)Nc1ccc(SCCCC(=O)c2ccccc2)cc1`, the “hERG current change (%, negative = inhibition) at 10uM” value falls from 9.73% to 2.69%.

First: COc1ccc(C2C(C(=O)NCc3ccccn3)c3cc(OC)c(OC)cc3C(=O)N2C)cc1 (stereo not drawn)
Second: COc1cc(C(=O)NCC(=O)N2CC=C(c3ccccc3)CC2)cc(OC)c1OC
The “hERG current change (%, negative = inhibition) at 10uM” value of the first is higher: -16.6% for the first, -51.2% for the second.

Compared with `O=C(CCn1c(=S)[nH]c2ccccc2c1=O)Nc1cccc(Cl)c1`, `CCCC(=O)Nc1ccc2c(c1)c1ccccc1n2CC` is higher in “hERG current change (%, negative = inhibition) at 10uM” value: 8.62% for the first, 9.23% for the second.

Going from `O=C(CSc1n[nH]c(-c2ccncc2)n1)Nc1ccc(Cl)cc1` to `Cc1ccc2[nH]c(CNC(=O)c3ccc(F)cc3)cc2c1`, the “hERG current change (%, negative = inhibition) at 10uM” value falls from 10.6% to 6.03%.

First: CC(NC(=O)c1ccccc1Cl)C(=O)N1CCN(Cc2ccc3c(c2)OCO3)CC1 (stereo not drawn)
Second: O=C(c1ccccc1)N1CCN(C(=O)c2ccc3c(c2)OCCO3)CC1
The “hERG current change (%, negative = inhibition) at 10uM” value of the first is higher: 5.55% for the first, -1.64% for the second.

First: Fc1ccc(CN2CCN(c3ncccn3)CC2)c(F)c1
Second: O=[N+]([O-])c1ccc(N2CCN(CCO)CC2)cc1NCc1ccco1
The “hERG current change (%, negative = inhibition) at 10uM” value of the first is higher: 23.3% for the first, -32.2% for the second.

Compared with `C/C(=N/OC(=O)c1c(-c2c(Cl)cccc2Cl)noc1C)c1cnccn1`, `CCCC1=C(C(=O)OCC)C(c2cccnc2)n2nc(C)nc2N1` (stereo not drawn) is higher in “hERG current change (%, negative = inhibition) at 10uM” value: -1.72% for the first, 13% for the second.

First: Cn1c(SCc2nc3ccccc3s2)nnc1-c1cccs1
Second: Nc1nc(CSc2ncn(-c3ccccc3)n2)cs1
The “hERG current change (%, negative = inhibition) at 10uM” value of the first is lower: -36% for the first, -10.2% for the second.

First: Cc1nc2nc(C)n(-c3ccccc3)c2s1
Second: CCc1c(C)nc2cc(-c3ccccc3)[nH]n2c1=O
The “hERG current change (%, negative = inhibition) at 10uM” value of the first is higher: 9.4% for the first, -8.55% for the second.

Compared with `CSc1nnc(Cc2cc(=O)[nH]c(=O)[nH]2)n1-c1cc(C)ccc1C`, `CCN(CC)CC.COc1ccc(OC)c(-n2c(=S)[nH]c3c(sc(=S)n3-c3ccccc3C)c2=O)c1` is higher in “hERG current change (%, negative = inhibition) at 10uM” value: -7.11% for the first, 6.14% for the second.

Going from `Cc1ccc(/C=N/N=C/c2ccc(C)cc2)cc1` to `Cc1ccc(S(=O)(=O)CCC(=O)OCC(=O)c2c(C)[nH]c3ccccc23)cc1`, the “hERG current change (%, negative = inhibition) at 10uM” value falls from 10.8% to -3.81%.

Going from `O=C1c2cccc3cccc(c23)C(=O)N1OS(=O)(=O)c1ccc(Cl)cc1` to `CN1C(=O)[C@@H]2[C@H](C1=O)[C@@H]1C(=O)Nc3ccccc3C(=O)N1[C@@H]2c1ccc(F)cc1`, the “hERG current change (%, negative = inhibition) at 10uM” value falls from 14.2% to 0.807%.

First: CCCCC(O)(CCCC)C(=O)NN(C(=O)OC)c1ccc(C)cc1
Second: CCC(CCC(=O)Nc1ccn(-c2ccccc2)n1)C(=O)O (stereo not drawn)
The “hERG current change (%, negative = inhibition) at 10uM” value of the first is higher: 2.88% for the first, -0.849% for the second.

Compared with `CCn1c(=O)c2sccc2n(CC(=O)NCCC2=CCCCC2)c1=O`, `CCOC(=O)Cc1csc(NC(=O)CCc2ccc(S(=O)(=O)N3CCOCC3)cc2)n1` is lower in “hERG current change (%, negative = inhibition) at 10uM” value: 3.85% for the first, -8.88% for the second.

First: S=c1[nH]nc(-c2cc(-c3ccccc3)n[nH]2)n1/N=C/c1c2ccccc2cc2ccccc12
Second: CCOC(=O)C1CCN(c2ncnc3c2c(-c2ccccc2)cn3-c2ccc(C)cc2)CC1
The “hERG current change (%, negative = inhibition) at 10uM” value of the first is lower: 7.84% for the first, 19.4% for the second.

Going from `Cc1ccsc1CN1CCC(C(=O)NCc2ccccc2Cl)CC1.O=C(O)C(=O)O` to `O=C(C1CCCN(Cc2ccccc2[N+](=O)[O-])C1)N1CCCCC1.O=C(O)C(=O)O` (stereo not drawn), the “hERG current change (%, negative = inhibition) at 10uM” value rises from -27% to 20.4%.

First: COc1cc(C(=S)N2CCOCC2)cc(OC)c1OC(=O)c1ccc(F)cc1
Second: CCOC(=O)C(=O)Nc1ccc(S(=O)(=O)N2CCOCC2)cc1OC
The “hERG current change (%, negative = inhibition) at 10uM” value of the first is lower: -3.47% for the first, 4.78% for the second.

First: O=C(NCc1cccc(F)c1)c1ccc(N2C(=O)Cn3c(cc4sccc43)C2=O)cc1
Second: C=CCNC(=O)c1ccc(Cn2cc(C(F)(F)F)ccc2=O)cc1
The “hERG current change (%, negative = inhibition) at 10uM” value of the first is higher: 6.99% for the first, 0.469% for the second.

First: CCOc1cc(NC(=O)c2ccco2)c(OCC)cc1NC(=O)c1cc(OC)c(OC)c(OC)c1
Second: COc1ccc(-c2oc3ccc(-c4cc(OC)c(OC)c(OC)c4)cc3c2C#Cc2ccsc2)cc1
The “hERG current change (%, negative = inhibition) at 10uM” value of the first is higher: 17.2% for the first, 10.8% for the second.

Going from `COc1ccc(CNc2nc3c(c(=O)[nH]c(=O)n3C)n2Cc2ccccc2)cc1` to `O=C(NCc1ccccc1)C1(CC2CC(c3ccccc3)=NO2)CCNCC1` (stereo not drawn), the “hERG current change (%, negative = inhibition) at 10uM” value falls from 28.3% to -7.21%.

Compared with `CCS(=O)(=O)N1CCC(NC(=O)C(Cc2cc(OC)ccc2OC)NC(C)=O)CC1` (stereo not drawn), `COc1ccc(C)cc1S(=O)(=O)N1CCC(C(=O)NC2CCCC2)CC1` is higher in “hERG current change (%, negative = inhibition) at 10uM” value: 5.93% for the first, 7.69% for the second.

Going from `C=CC[N+]1(CC(=O)NCc2ccc(NC(C)=O)cc2)CCOCC1.[Br-]` to `CCOc1ccc(NC(=O)Nc2cc(C)on2)cc1`, the “hERG current change (%, negative = inhibition) at 10uM” value rises from 4.09% to 11.8%.

First: O=P(CCC(F)(F)F)(CCC(F)(F)F)CCC(F)(F)F
Second: FC(F)(F)c1cccc(Oc2cc(C(F)(F)F)nc(-c3ccccn3)n2)c1
The “hERG current change (%, negative = inhibition) at 10uM” value of the first is higher: 10.4% for the first, 2.67% for the second.

Compared with `O=[N+]([O-])c1ccccc1/C=N/Nc1nc(N2CCCC2)nc(N2CCCC2)n1`, `Cc1nc(N2CCOCC2)nc(N2CCCC2)c1[N+](=O)[O-]` is lower in “hERG current change (%, negative = inhibition) at 10uM” value: 23.1% for the first, 3.43% for the second.

Compared with `COC1(OC)C(/C=C/c2ccc(C)cc2)C(C#N)(C#N)C1(OC)OC` (stereo not drawn), `CC(C)(C)CN1C(N)=NC[C@H]1Cc1ccc(O)cc1` is higher in “hERG current change (%, negative = inhibition) at 10uM” value: -10.4% for the first, 17.5% for the second.

Going from `COc1cc(C2NC(=O)NC(C)=C2C(=O)OC2CCCCC2)cc(Cl)c1O` (stereo not drawn) to `COc1cc(/C=C2/C(=O)NN(c3ccc(Cl)cc3)C2=O)cc(Br)c1O`, the “hERG current change (%, negative = inhibition) at 10uM” value rises from -8.25% to 19.7%.

First: COc1ccccc1CCNC(=O)C(=O)Nc1cc2c3c(c1)CC(=O)N3CCC2
Second: Cc1cccc(NC(=O)CSCC(=O)Nc2ccccc2N2CCCCC2)c1
The “hERG current change (%, negative = inhibition) at 10uM” value of the first is lower: -27.7% for the first, -1.89% for the second.

Going from `CC1CCN(C(=O)c2cccc(S(=O)(=O)N3CCN(c4ccccc4)CC3)c2)CC1` to `CN(C)S(=O)(=O)c1ccc(N2CCCC2)c(C(=O)N2CCN(c3ccc([N+](=O)[O-])cc3)CC2)c1`, the “hERG current change (%, negative = inhibition) at 10uM” value falls from 2.41% to -76.7%.

Compared with `Cc1cccc(C)c1OCCn1nnc2ccccc21.Cl`, `S=C(NCc1cccnc1)c1ccccc1` is lower in “hERG current change (%, negative = inhibition) at 10uM” value: 9.21% for the first, 3.43% for the second.

Compared with `O=C(NCCc1ccc(F)cc1)NC12CC3CC(CC(C3)C1)C2`, `COCCn1c(C23CC4CC(CC(C4)C2)C3)n[nH]c1=S` is higher in “hERG current change (%, negative = inhibition) at 10uM” value: -13.4% for the first, -9.76% for the second.

Going from `O=C1C2CCCCC2C(=O)N1Cc1ccccc1` (stereo not drawn) to `CC1(C)C(=O)OC(c2ccccc2)C2(CCCC2)C1=O` (stereo not drawn), the “hERG current change (%, negative = inhibition) at 10uM” value falls from 7.42% to 7.29%.

Compared with `Cc1cc(NC(=O)COC(=O)c2ccc(S(=O)(=O)N3CCCC3)cc2)no1`, `COc1ccc(S(=O)(=O)NNc2nc(C)cc(C)n2)cc1[N+](=O)[O-]` is lower in “hERG current change (%, negative = inhibition) at 10uM” value: 18.4% for the first, 10.3% for the second.

First: CCCN1CCC(=NNC(=O)CSc2cc(C)c(Br)cc2C)CC1
Second: CCC(Oc1ccccc1)C(=O)N1CC(C)CC(C)C1 (stereo not drawn)
The “hERG current change (%, negative = inhibition) at 10uM” value of the first is lower: -28% for the first, 4.15% for the second.

First: CC(C)Nc1nc(NC(N)=S)nc(NC(C)(C)C)n1
Second: Cc1nnc2n1N=CC=C(C(C)(C)C)S2
The “hERG current change (%, negative = inhibition) at 10uM” value of the first is higher: 3.77% for the first, -12.5% for the second.

With `CCn1c(N)c(C(=O)NC)sc1=S` the “hERG current change (%, negative = inhibition) at 10uM” value was -4.1%.

Reference: PMC4336329 (PLoS ONE, 2015)
